Source: article PMC4336329 (PLoS ONE, 2015)
Screen size: about 310,000 compounds; about 2,200 (0.71%) showed an effect of 50% or more. The effect is printed as a negative number. Some of the results follow.

Target: human ether-à-go-go-related gene (hERG) potassium channel (human, UniProt Q12809)
Test: primary screen, population patch clamp on CHO cells stably expressing hERG

Sequence of human ether-à-go-go-related gene (hERG) potassium channel (Q12809 whole entry, looked up): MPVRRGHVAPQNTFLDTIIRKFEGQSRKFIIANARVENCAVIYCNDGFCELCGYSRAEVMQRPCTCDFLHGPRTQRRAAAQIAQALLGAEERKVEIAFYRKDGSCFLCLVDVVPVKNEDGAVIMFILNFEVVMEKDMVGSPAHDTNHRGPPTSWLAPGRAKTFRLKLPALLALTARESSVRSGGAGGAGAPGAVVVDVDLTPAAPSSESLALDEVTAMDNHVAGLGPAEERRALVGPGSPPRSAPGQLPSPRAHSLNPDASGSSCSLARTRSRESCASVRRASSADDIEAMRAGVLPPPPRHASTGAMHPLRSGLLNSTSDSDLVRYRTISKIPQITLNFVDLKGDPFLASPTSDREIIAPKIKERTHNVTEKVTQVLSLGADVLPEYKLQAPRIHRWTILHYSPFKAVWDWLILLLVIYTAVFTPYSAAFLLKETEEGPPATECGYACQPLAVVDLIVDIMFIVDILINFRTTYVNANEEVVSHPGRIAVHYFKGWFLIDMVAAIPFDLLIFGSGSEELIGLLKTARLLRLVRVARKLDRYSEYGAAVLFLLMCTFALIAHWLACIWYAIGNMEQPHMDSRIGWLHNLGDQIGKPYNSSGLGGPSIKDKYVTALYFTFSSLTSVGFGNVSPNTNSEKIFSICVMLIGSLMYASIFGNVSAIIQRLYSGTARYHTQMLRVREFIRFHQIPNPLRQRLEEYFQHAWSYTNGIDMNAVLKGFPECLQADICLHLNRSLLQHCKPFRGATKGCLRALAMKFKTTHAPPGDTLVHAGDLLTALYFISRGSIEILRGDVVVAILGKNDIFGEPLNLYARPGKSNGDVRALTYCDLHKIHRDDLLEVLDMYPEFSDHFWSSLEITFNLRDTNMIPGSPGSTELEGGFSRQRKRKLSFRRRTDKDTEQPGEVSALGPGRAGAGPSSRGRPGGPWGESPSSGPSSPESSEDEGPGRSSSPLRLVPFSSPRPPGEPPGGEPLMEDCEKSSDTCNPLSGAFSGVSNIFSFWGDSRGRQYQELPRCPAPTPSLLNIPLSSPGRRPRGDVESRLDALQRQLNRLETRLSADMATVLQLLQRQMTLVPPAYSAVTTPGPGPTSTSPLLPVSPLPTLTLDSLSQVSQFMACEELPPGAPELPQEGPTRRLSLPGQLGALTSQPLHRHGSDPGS

In order of rising “hERG current change (%, negative = inhibition) at 1uM” value:
1. OCC1(Cc2ccccc2)CCN(C2CCN(c3ccc(F)c(F)c3)CC2)CC1  -124%
2. CN(C)CCNC(C(=O)Nc1cccc(S(=O)(=O)N2CCOCC2)c1)c1ccccc1 (centres unmarked)  -15.5%
3. O=C(Cc1ccc(Br)cc1)N1CCN(c2ccccn2)CC1  -15.2%
4. Cc1nnc(NC(=O)C2CCN(c3nnnn3-c3ccccc3)CC2)s1  -9.17%
5. O=C(CC1Nc2cccc3cccc(c23)NC1=O)Nc1ccc(F)cc1 (centres unmarked)  -9.16%
6. Cc1cc(C(=O)NCCCOC(C)C)c2ccccc2n1  -6.91%
7. O=C(O)CCc1ccc(-c2cccs2)n1CC1CCCO1 (centres unmarked)  -6.79%
8. CCCCn1c(SCC(=O)N2CCCc3ccccc32)nc2c1c(=O)n(C)c(=O)n2C  -6.31%
9. COC(=O)c1ccc(NCN2C(=O)C3C4CCC(C4)C3C2=O)cc1 (centres unmarked)  -3.18%
10. Cc1ccc(CNC(=O)C2CCN(c3nn4c(=O)cc(C)nc4s3)CC2)cc1  -0.776%
11. O=C(O)CC/C(=C\c1cccc(NC(=O)c2ccccc2Cl)c1)c1nc2ccccc2s1  -0.661%
12. O=C(CN1C(=O)NC2(CCc3ccccc32)C1=O)c1ccc(Br)s1 (centres unmarked)  -0.158%
13. CCOC(=O)c1cccc(NC(=O)C2CCCO2)c1 (centres unmarked)  -0.0787%
14. C/C=C(\C)C(=O)OC(C)(C)[C@H]1Cc2cc3ccc(=O)oc3cc2O1  0.146%
15. O=C(COC(=O)CCCOc1ccc(Cl)cc1Cl)NCc1ccccc1  1.55%
16. Nc1ncccc1C(=O)OCC(=O)N1CCN(S(=O)(=O)c2ccc(Cl)cc2)CC1  2.48%
17. CC(C)C(=O)NC(=S)Nc1ccc(S(=O)(=O)N(C)C)cc1  3.03%
18. O=C(/C=C/c1ccccc1)N1CCN(c2cccc(Cl)n2)CC1  3.21%
19. O=C1CCCC(=O)N1c1ccc(O)cc1  3.67%
20. C/C(=N\NC(=S)Nc1ccc(C)cc1)c1cccc(N)c1  5.32%
21. O=C(/C=C/c1ccccc1Cl)OCC(=O)c1ccc[nH]1  5.37%
22. COc1ccc(NC(=O)/C(=C\c2cccnc2)NC(=O)c2cccs2)cc1  5.37%
23. O=C(O)Cc1coc(-c2ccc(F)cc2)n1  5.75%
24. N#CCSC1=Nc2ccccc2C2=NC(CCC(=O)N3CCN(c4ccccc4)CC3)C(=O)N12 (centres unmarked)  5.82%
25. Cc1cc(C)c2c(C)c(C(=O)NCc3ccncc3)oc2c1  5.84%
26. Cc1c(C(=O)Nc2cccc(C(F)(F)F)c2)oc2ccc(S(=O)(=O)N3CCOCC3)cc12  5.91%
27. Cc1ccc(NC(=O)CCSc2ccccc2)c(C)c1  6.29%
28. O=Cc1sc(=O)n(Cc2cccc(C(=O)O)c2)c1Cl  6.31%
29. COC(=O)CC1=C(C(=O)OC)C(c2ccncc2)C(C#N)=C(N)O1 (centres unmarked)  6.75%
30. Cc1ccc(N(C)C(=O)C2CCN(S(=O)(=O)c3ccc4c(c3)oc(=O)n4C)CC2)cc1  6.89%
31. COCCNC(=O)CN1CCN(Cc2cccc(Cl)c2)C1=O  7.21%
32. CCN(c1ccccc1)S(=O)(=O)c1cnc[nH]1  7.28%
33. Cn1c(SCC(=O)Nc2cccc(C(=O)O)c2)nnc1-c1cc2cc(Br)ccc2o1  7.62%
34. CC(C)CN(CC(C)C)c1ccc(C=C2C(=O)NC(=S)NC2=O)cc1[N+](=O)[O-]  7.8%
35. O=C(/C=C/c1ccc(Br)cc1)c1ccc(NC2=NCCCS2)cc1  8%
36. CCOc1ccc(C2/C(=C(/O)c3ccc(OC)cc3)C(=O)C(=O)N2c2cc(C)on2)cc1OC (centres unmarked)  8.38%
37. CC1=C(C(=O)Nc2ccccc2)C(c2ccco2)C(C#N)=C(SCc2ccccc2)N1 (centres unmarked)  9.12%
38. Cc1ccccc1OCC(=O)OCC(=O)Nc1ccc(N2CCOCC2)cc1  9.24%
39. CNC(=O)NC(=O)CSc1cccc(C(F)(F)F)c1  10.4%
40. CN(C)S(=O)(=O)c1ccc2c(c1)nc1n2CCC1  10.7%
41. O=C(NCCNC(=O)c1ccco1)c1ccc(Cl)c(Cl)c1  11.2%
42. CCN1CCN(Cc2ccc(NC(=O)c3ccc(C)c(/C=C/c4cnc(Nc5cc(N6CCNCC6)nc(C)n5)cn4)c3)cc2C(F)(F)F)CC1.O=C(O)C(F)(F)F  11.6%
43. COC(=O)c1sc(-c2cccs2)cc1N  11.6%
44. COc1ccc(/C=N/NC(=O)c2ccn[nH]2)cc1Cn1nc(C)c([N+](=O)[O-])c1C  12.8%
45. CC(=O)Nc1ccc(N(C(=O)CNC(=O)c2cccs2)C(C(=O)NCC2CCCO2)c2ccccc2)cc1 (centres unmarked)  13.3%
46. CC(C)N(Cc1ccccc1)C(=S)NCCN1CCOCC1  13.9%
47. Cn1c(Cn2cnc([N+](=O)[O-])n2)nnc1SCC(=O)Nc1ccccc1  13.9%
48. CN1C(=O)c2ccc(NC(=O)c3cccc4ccccc34)cc2C1=O  14.2%
49. COc1ccc(C2=NCCn3nc4cc(OC)ccc4c32)cc1  14.5%
50. O=C1c2cccnc2C(=O)N1CO  14.9%
51. CC(C)Oc1ccc(CCc2n[nH]c(=S)n2Cc2ccccc2)cc1  15.1%
52. CCNC(=S)NNC(=O)CCn1cc(C)cn1  15.9%
53. COc1ccc(/C=C/c2nnc(NC(=O)c3ccco3)s2)cc1  16.8%
54. NC(=S)N/N=C/c1ccc(C23CC4CC(CC(C4)C2)C3)cc1  17.7%
55. C=CCNC(=O)/C(=C\c1ccco1)NC(=O)c1ccco1  18.6%
56. C/C(=N\NC(=S)Nc1cccc(C)c1)c1cccc(N)c1  19.2%
